In test [1] the target is T1, Arabidopsis CBL-… PROTEIN KINASE 24 (CIPK24), SCC fusion for BiFC (Arabidopsis) (UniProt Q9LDI3).
T1 sequence: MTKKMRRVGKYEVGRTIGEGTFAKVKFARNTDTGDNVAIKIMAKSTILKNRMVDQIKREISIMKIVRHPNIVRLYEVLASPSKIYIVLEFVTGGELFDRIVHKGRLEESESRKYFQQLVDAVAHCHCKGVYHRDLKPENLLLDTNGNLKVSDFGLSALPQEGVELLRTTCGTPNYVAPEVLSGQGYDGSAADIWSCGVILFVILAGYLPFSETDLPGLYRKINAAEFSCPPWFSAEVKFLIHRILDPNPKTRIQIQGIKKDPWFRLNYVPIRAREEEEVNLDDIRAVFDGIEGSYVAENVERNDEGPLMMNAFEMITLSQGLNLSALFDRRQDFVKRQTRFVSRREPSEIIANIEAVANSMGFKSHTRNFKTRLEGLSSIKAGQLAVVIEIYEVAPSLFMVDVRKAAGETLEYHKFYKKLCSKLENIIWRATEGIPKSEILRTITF
Put plainly: split reporter; BiFC with split CFP (SCN in pSCYNE, SCC in pSCYCE-R) in N. benthamiana leaf epidermal cells after Agrobacterium infiltration with p19; confocal microscopy.

The chains behind the UniProt entries cited, without tags or fusion partners.
UniProt O81445: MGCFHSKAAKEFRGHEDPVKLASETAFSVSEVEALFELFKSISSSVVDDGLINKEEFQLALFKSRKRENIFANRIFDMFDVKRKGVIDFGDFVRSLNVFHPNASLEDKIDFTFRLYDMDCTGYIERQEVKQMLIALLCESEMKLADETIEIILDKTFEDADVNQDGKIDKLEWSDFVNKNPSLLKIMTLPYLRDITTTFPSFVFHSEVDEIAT

In test [2] the target is T2, SIP1, BiFC fusion expressed in N. benthamiana leaves (L. japonicus) (UniProt B2CZF7).
T2 sequence: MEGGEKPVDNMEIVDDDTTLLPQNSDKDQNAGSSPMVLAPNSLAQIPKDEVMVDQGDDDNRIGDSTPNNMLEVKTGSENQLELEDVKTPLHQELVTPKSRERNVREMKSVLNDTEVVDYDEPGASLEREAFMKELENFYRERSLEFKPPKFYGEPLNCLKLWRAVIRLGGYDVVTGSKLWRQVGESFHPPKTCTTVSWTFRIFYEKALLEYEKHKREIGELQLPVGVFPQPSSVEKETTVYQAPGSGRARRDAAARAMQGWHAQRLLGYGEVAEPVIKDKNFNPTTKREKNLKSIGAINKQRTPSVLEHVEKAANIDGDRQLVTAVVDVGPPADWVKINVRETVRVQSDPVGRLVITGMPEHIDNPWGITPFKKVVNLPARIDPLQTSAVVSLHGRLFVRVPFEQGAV
The test is described as above.

Test [3] deals with T3, SymRK interacting E3 ligase (SIE3), yeast two-hybrid fusions (L. japonicus) (UniProt K0BV36).
T3 sequence: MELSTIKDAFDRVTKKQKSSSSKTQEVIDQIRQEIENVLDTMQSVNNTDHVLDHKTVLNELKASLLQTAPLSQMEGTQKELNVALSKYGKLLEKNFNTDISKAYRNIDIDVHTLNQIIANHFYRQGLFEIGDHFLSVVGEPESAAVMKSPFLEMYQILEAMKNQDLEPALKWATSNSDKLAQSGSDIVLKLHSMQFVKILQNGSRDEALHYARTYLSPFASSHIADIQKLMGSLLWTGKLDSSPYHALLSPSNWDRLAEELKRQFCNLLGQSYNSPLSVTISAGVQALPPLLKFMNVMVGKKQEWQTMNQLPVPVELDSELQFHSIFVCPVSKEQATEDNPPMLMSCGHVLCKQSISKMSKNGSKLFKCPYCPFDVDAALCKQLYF
Put plainly: two-hybrid; Gal4 system, BD fusions in pGBKT7 and AD fusions in pGADT7, small-scale mating; growth on SD/-Trp-Leu-His-Ade (SD-4), X-gal and β-galactosidase activity (Miller units).

Test [4] concerns the target T4, SymRK interacting protein 1 (SIP1), yeast two-hybrid fusions (L. japonicus) (UniProt B2CZF7).
T4 sequence: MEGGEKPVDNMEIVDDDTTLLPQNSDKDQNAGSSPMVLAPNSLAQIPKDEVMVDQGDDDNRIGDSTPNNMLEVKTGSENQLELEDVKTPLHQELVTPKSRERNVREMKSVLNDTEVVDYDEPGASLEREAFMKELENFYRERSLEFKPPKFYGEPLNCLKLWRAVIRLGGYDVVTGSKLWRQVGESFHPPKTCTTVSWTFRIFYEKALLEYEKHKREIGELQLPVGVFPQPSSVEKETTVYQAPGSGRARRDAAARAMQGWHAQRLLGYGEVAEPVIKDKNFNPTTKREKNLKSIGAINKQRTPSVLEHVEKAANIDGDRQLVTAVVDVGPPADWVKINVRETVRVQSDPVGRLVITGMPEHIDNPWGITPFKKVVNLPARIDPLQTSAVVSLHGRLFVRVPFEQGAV
The test is described as above.

For another test, the target named is SIE3::GFP (L. japonicus) (UniProt K0BV36). In words: SDS-PAGE without DTT in the loading buffer and immunoblot (band of dimer size); SIE3::GFP leaf extract in native buffer, incubated with 10 μM ATP at 4°C with 200 mM DTT; stopped with SDS loading buffer without DTT; anti-GFP blot. (In western blotting, separated proteins are transferred to a membrane and probed.)

For test [5], the target named is SIE3-C266S, yeast two-hybrid fusions (L. japonicus) (UniProt K0BV36). In words: two-hybrid; Gal4 system, BD fusions in pGBKT7 and AD fusions in pGADT7, small-scale mating; growth on SD/-Trp-Leu-His-Ade (SD-4), X-gal and β-galactosidase activity (Miller units).
In test [6] the target is SIE3, BiFC fusion expressed in N. benthamiana leaves (L. japonicus) (UniProt K0BV36). In words: split reporter; BiFC with split CFP (SCN in pSCYNE, SCC in pSCYCE-R) in N. benthamiana leaf epidermal cells after Agrobacterium infiltration with p19; confocal microscopy.
For test [7], the target named is Nod factor receptor 5 (NFR5), SCC fusion for BiFC (L. japonicus) (UniProt Q70KR1). The test is described as above.
Test [8] addresses SIE3, BiFC fusion expressed in N. benthamiana leaves (L. japonicus) (UniProt K0BV36). Put plainly: SDS-PAGE and immunoblot of leaf extracts (band of dimer size); proteins extracted from N. benthamiana leaves of the BiFC experiments, immunoblot with anti-Flag or anti-HA antibody.
For test [9], the target named is SIE3-C266S, BiFC fusion expressed in N. benthamiana leaves (L. japonicus) (UniProt K0BV36). In words: split reporter; BiFC with split CFP (SCN in pSCYNE, SCC in pSCYCE-R) in N. benthamiana leaf epidermal cells after Agrobacterium infiltration with p19; confocal microscopy.

No constants are given. Whether binding was seen depends on the method and setting. For part of these data: Binding seen in cells or lysates may run through a third protein. Some entries that bind do so weakly or less than the wild type. Tags and fused reporters may be left off the sequences shown.

As to “Arabidopsis CALCINEURIN B-LIKE (CBL) 1, SCN fusion for BiFC (from UniProt O81445 1-213)”, the binding entry in [1] is on record as “binds”.

With “Nod factor receptor 5 (NFR5), SCN fusion for BiFC (from UniProt Q70KR1 1-595)”, in test [2], the binding entry was “no binding”.

B1: SymRK interacting protein 1 (SIP1), yeast two-hybrid fusions (protein, UniProt B2CZF7 1-408)
chain: MEGGEKPVDNMEIVDDDTTLLPQNSDKDQNAGSSPMVLAPNSLAQIPKDEVMVDQGDDDNRIGDSTPNNMLEVKTGSENQLELEDVKTPLHQELVTPKSRERNVREMKSVLNDTEVVDYDEPGASLEREAFMKELENFYRERSLEFKPPKFYGEPLNCLKLWRAVIRLGGYDVVTGSKLWRQVGESFHPPKTCTTVSWTFRIFYEKALLEYEKHKREIGELQLPVGVFPQPSSVEKETTVYQAPGSGRARRDAAARAMQGWHAQRLLGYGEVAEPVIKDKNFNPTTKREKNLKSIGAINKQRTPSVLEHVEKAANIDGDRQLVTAVVDVGPPADWVKINVRETVRVQSDPVGRLVITGMPEHIDNPWGITPFKKVVNLPARIDPLQTSAVVSLHGRLFVRVPFEQGAV
Regarding B1, the binding result in test [3] was “binds”.

B2: SymRK interacting E3 ligase (SIE3), yeast two-hybrid fusions (protein, UniProt K0BV36 1-386)
chain: MELSTIKDAFDRVTKKQKSSSSKTQEVIDQIRQEIENVLDTMQSVNNTDHVLDHKTVLNELKASLLQTAPLSQMEGTQKELNVALSKYGKLLEKNFNTDISKAYRNIDIDVHTLNQIIANHFYRQGLFEIGDHFLSVVGEPESAAVMKSPFLEMYQILEAMKNQDLEPALKWATSNSDKLAQSGSDIVLKLHSMQFVKILQNGSRDEALHYARTYLSPFASSHIADIQKLMGSLLWTGKLDSSPYHALLSPSNWDRLAEELKRQFCNLLGQSYNSPLSVTISAGVQALPPLLKFMNVMVGKKQEWQTMNQLPVPVELDSELQFHSIFVCPVSKEQATEDNPPMLMSCGHVLCKQSISKMSKNGSKLFKCPYCPFDVDAALCKQLYF
B2: the binding entry in test [3] and in [4] was “binds” in each case.

B3: SIE3::GFP (natural protein, L. japonicus, UniProt K0BV36 1-386, looked up)
chain: MELSTIKDAFDRVTKKQKSSSSKTQEVIDQIRQEIENVLDTMQSVNNTDHVLDHKTVLNELKASLLQTAPLSQMEGTQKELNVALSKYGKLLEKNFNTDISKAYRNIDIDVHTLNQIIANHFYRQGLFEIGDHFLSVVGEPESAAVMKSPFLEMYQILEAMKNQDLEPALKWATSNSDKLAQSGSDIVLKLHSMQFVKILQNGSRDEALHYARTYLSPFASSHIADIQKLMGSLLWTGKLDSSPYHALLSPSNWDRLAEELKRQFCNLLGQSYNSPLSVTISAGVQALPPLLKFMNVMVGKKQEWQTMNQLPVPVELDSELQFHSIFVCPVSKEQATEDNPPMLMSCGHVLCKQSISKMSKNGSKLFKCPYCPFDVDAALCKQLYF
notes: SIE3 of Lotus japonicus fused to GFP; the cloning of this construct is not described; Detected with anti-GFP antibody; monomer about 68.5 kDa, upper band about 137 kDa; source: N. benthamiana leaves, total proteins extracted in native buffer
Regarding B3, in the test with SIE3::GFP (L. japonicus), the binding entry is “no binding (condition: with 200 mM DTT)”.

B4: SIE3-C266S, yeast two-hybrid fusions (protein, UniProt K0BV36 1-386)
chain: MELSTIKDAFDRVTKKQKSSSSKTQEVIDQIRQEIENVLDTMQSVNNTDHVLDHKTVLNELKASLLQTAPLSQMEGTQKELNVALSKYGKLLEKNFNTDISKAYRNIDIDVHTLNQIIANHFYRQGLFEIGDHFLSVVGEPESAAVMKSPFLEMYQILEAMKNQDLEPALKWATSNSDKLAQSGSDIVLKLHSMQFVKILQNGSRDEALHYARTYLSPFASSHIADIQKLMGSLLWTGKLDSSPYHALLSPSNWDRLAEELKRQFSNLLGQSYNSPLSVTISAGVQALPPLLKFMNVMVGKKQEWQTMNQLPVPVELDSELQFHSIFVCPVSKEQATEDNPPMLMSCGHVLCKQSISKMSKNGSKLFKCPYCPFDVDAALCKQLYF
Take B4: in test [5], the binding entry is “no binding”.

B5: SIE3, BiFC fusion expressed in N. benthamiana leaves (protein, UniProt K0BV36 1-386)
chain: MELSTIKDAFDRVTKKQKSSSSKTQEVIDQIRQEIENVLDTMQSVNNTDHVLDHKTVLNELKASLLQTAPLSQMEGTQKELNVALSKYGKLLEKNFNTDISKAYRNIDIDVHTLNQIIANHFYRQGLFEIGDHFLSVVGEPESAAVMKSPFLEMYQILEAMKNQDLEPALKWATSNSDKLAQSGSDIVLKLHSMQFVKILQNGSRDEALHYARTYLSPFASSHIADIQKLMGSLLWTGKLDSSPYHALLSPSNWDRLAEELKRQFCNLLGQSYNSPLSVTISAGVQALPPLLKFMNVMVGKKQEWQTMNQLPVPVELDSELQFHSIFVCPVSKEQATEDNPPMLMSCGHVLCKQSISKMSKNGSKLFKCPYCPFDVDAALCKQLYF
For B5, the binding result is reported as “binds” in test [6], “binds” in test [2], “no binding” in [7] and “binds” in test [8].

B6: SIE3-C266S, BiFC fusion expressed in N. benthamiana leaves (protein, UniProt K0BV36 1-386)
chain: MELSTIKDAFDRVTKKQKSSSSKTQEVIDQIRQEIENVLDTMQSVNNTDHVLDHKTVLNELKASLLQTAPLSQMEGTQKELNVALSKYGKLLEKNFNTDISKAYRNIDIDVHTLNQIIANHFYRQGLFEIGDHFLSVVGEPESAAVMKSPFLEMYQILEAMKNQDLEPALKWATSNSDKLAQSGSDIVLKLHSMQFVKILQNGSRDEALHYARTYLSPFASSHIADIQKLMGSLLWTGKLDSSPYHALLSPSNWDRLAEELKRQFSNLLGQSYNSPLSVTISAGVQALPPLLKFMNVMVGKKQEWQTMNQLPVPVELDSELQFHSIFVCPVSKEQATEDNPPMLMSCGHVLCKQSISKMSKNGSKLFKCPYCPFDVDAALCKQLYF
On to B6, for which the binding result in test [9] is given as “no binding”.

For the origin of these results see PMC7303358, “The Lotus japonicus Ubiquitin Ligase SIE3 Interacts With the Transcription Factor SIP1 and Forms a Homodimer” (Frontiers in Plant Science, 2020).
